Kd data for one compound are collected here from publication PMC9668655 (Computational and Structural Biotechnology Journal, 2022).

The Kd is a measure of binding affinity in units of concentration.

For this assay, the target named is MOAβT (β-trefoil domain of MOA) (Marasmius oreades, UniProt Q8X123). Particulars: 20 mM Tris/HCl pH 7.5, 100 mM NaCl, 25 °C; one-site model, N fixed at 2.

For the compound `OC[C@H]1O[C@H](O[C@H]2[C@@H](O)[C@@H](CO)OC(O)[C@@H]2O)[C@H](O)[C@@H](O)[C@H]1O` (stereo partly shown) [Galα1-3Gal], the affinity, expressed as Kd, was 150 µM.
